Experimental data from PubChem BioAssay AID624170 (National Center for Advancing Translational Sciences (NCATS), 2012).
Where “and” joins values, the source holds several entries; their conditions need not be identical. Identical values can stand only once. Hit rate of the full screen: of about 410,000 compounds, about 850 (0.21%) were called active. Inconclusive results, whose numbers are uncertain, are shown with a selection of clear calls. The call rests on the fitted dose curve; in most records, active means well fitted inhibition curve with a large enough effect; inconclusive means small, poorly fitted or top-dose-only effect, or another doubt; inactive means no such curve, though single readings can be large or run the other way. A potency beside an inconclusive call is a rough fit, not a confirmed value.

biological target: Glutaminase kidney isoform, mitochondrial (Homo sapiens) (UniProt O94925); test: qHTS for Inhibitors of Glutaminase (GLS); conditions: GLS enzymatic activity, qHTS titration; series mostly up to 45.5 µM; activity change, negative = inhibition: at the top concentration
Outline: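 Enzyme dispensed in phosphate buffer (45 mM, pH 8.2, 0.02% Tween-20), compounds pinned in, then 1 mM L-glutamine solution and the glutamate oxidase–HRP–Amplex Red mix added; fluorescence read immediately and again after 30 min at room temperature.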
On the % scale 0 is the no-effect control and ±100 the full control effect; potency means the concentration at half of the fitted maximal effect; tags describe the fitted curve by direction and shape.

Chain of UniProt O94925 (O94925 whole entry, looked up, canonical isoform): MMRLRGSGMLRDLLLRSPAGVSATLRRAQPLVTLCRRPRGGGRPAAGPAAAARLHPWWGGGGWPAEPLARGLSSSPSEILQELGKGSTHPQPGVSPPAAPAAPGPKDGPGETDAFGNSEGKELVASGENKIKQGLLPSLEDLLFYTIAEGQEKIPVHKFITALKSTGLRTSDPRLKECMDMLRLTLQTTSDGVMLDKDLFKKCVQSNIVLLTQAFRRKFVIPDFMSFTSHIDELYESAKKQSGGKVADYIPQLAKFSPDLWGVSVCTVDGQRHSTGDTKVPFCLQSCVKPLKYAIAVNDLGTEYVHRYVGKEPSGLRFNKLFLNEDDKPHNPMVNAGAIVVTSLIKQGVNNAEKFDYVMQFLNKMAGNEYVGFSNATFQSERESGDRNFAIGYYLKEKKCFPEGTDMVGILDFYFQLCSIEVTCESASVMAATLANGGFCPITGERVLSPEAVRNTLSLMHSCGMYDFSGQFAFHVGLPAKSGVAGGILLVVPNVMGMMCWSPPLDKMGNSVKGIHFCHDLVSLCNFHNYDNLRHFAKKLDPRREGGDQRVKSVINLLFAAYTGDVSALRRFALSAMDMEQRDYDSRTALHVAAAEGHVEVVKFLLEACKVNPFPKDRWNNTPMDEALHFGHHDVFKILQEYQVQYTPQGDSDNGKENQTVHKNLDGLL

SMILES	activity change, negative = inhibition	Potency
O=C(Nc1ccccc1SC(=O)c1ccccc1)c1ccccc1	inactive: 0.496%	–
O=C(O)C(c1ccccc1)N1C(=O)/C(=C\c2ccc(-c3ccc(Br)cc3)o2)SC1=S (configuration not stated)	–	inconclusive: 35.5 µM [inhibitor, single point]
CCOC(=O)c1sc2ccccc2c1S(=O)(=O)Nc1cccc(C(F)(F)F)c1	–	inconclusive: 25.1 µM [inhibitor, single point]
O=C(NN=C1c2ccccc2-c2ccccc21)c1ccccc1	inactive: 6.22%	–
COc1cc(/C=C(\C#N)C(=O)Nc2cccc(C(=O)O)c2)ccc1OCc1ccc(C)cc1	–	inconclusive: 35.5 µM [inhibitor, single point]
C#CCOCCOCCOCCNc1nc(N2CCN(C(=O)CCCCCCCCCCNC(=O)[C@H](CO)n3cc(CCCSC)nn3)CC2)nc(N2CCN(C(=O)CCCCCCCCCCNC(=O)[C@H](CCCN=C(N)N)n3cc(C[C@@H](C)CC)nn3)CC2)n1	–	inconclusive: 15.8 µM [inhibitor, single point]
CN(NC(=S)Nc1ccc(OC(F)F)cc1)C(=S)Nc1ccc(OC(F)F)cc1	–	inconclusive: 14.1 µM [inhibitor, single point]
COc1ccc(OCC(=O)N/N=C2\CCCCc3ccccc32)cc1	–	inconclusive: 35.5 µM [inhibitor, single point]
CCOC(=O)/C(C#N)=C/C=C1/C=CC=CN1C	inactive: 17.7%	–
COC(=O)CCC(=O)NNC(=O)CCCOc1ccc(Cl)cc1Cl	–	inconclusive: 5.62 µM [inhibitor, single point]
CCCc1ccc(-c2c(C)sc(NC(=O)c3ccnn3C)c2C#N)cc1	–	inconclusive: 22.4 µM [inhibitor, partial curve, poor fit]
COc1ccccc1N(C(C)=O)C1=C(Cl)C(=O)c2ccccc2C1=O	–	inconclusive: 35.5 µM [inhibitor, single point]
COc1cc(/C=C(\C#N)c2nc3ccc(C)cc3[nH]2)cc([N+](=O)[O-])c1O	–	inconclusive: 22.4 µM [inhibitor, single point]
FC(F)Oc1ccc(-c2csc(NNC3=NCCCCC3)n2)cc1	–	inconclusive: 35.5 µM [inhibitor, single point]
Cc1ccc(S(=O)(=O)N2C[C@H]3N(C(=O)OC(C)C)N(C(=O)OC(C)C)C[C@H](OC(=O)Nc4c(C)noc4C)[C@@]3(O)C2)cc1	inactive: 4.45%	–
Cc1ccc(C)c(NC(=O)c2ccccc2O)c1	–	inconclusive: 35.5 µM [inhibitor, single point]
O=C(NC1CCCCCC1)c1ccc[nH]c1=S	inactive: -15.8%	–
FC(F)(F)C1CCCN(c2nsc3ccccc23)C1 (configuration not stated)	–	active: 7.94 µM
CC(C)(C)c1ccc(O)c(O)c1	–	inconclusive: 22.4 µM [inhibitor, full curve, poor fit] and inconclusive: 35.5 µM [inhibitor, single point]
CCc1ccc(CCC(=O)Nc2nnc(C)s2)o1	inactive: 0.981%	–
Cc1ccc2nc3c(c(C(=O)O)c2c1)CCC3	–	inconclusive: 15.8 µM [inhibitor, single point]

SMILES	activity change, negative = inhibition	Potency
COc1ccc(NCC(=O)Nc2ccc(Br)cc2F)c(OC)c1	–	inconclusive: 22.4 µM [inhibitor, single point]
C[C@H](CO)N1C[C@H](C)[C@@H](CN(C)C(=O)Nc2ccccc2)Oc2ccc(NC(=O)c3ccncc3)cc2C1=O	–	inconclusive: 22.4 µM [inhibitor, single point]
COc1ccc(-n2nc([N+](=O)[O-])c(=NCCC3=CCCCC3)n2O)cc1	inactive: 6.14%	–
CCN(CC)c1ccc(NC(=O)COc2ccccc2C#N)cc1S(=O)(=O)Nc1ccccc1OC	–	inconclusive: 11.2 µM [inhibitor, partial curve]
CCOC(=O)C1C(c2ccccc2)NC(=S)NC1(C)O (configuration not stated)	–	active: 2.82 µM
CCOc1cc(C2c3c(-c4ccccc4)n[nH]c3C(=O)N2c2ccc(C(=O)O)cc2)ccc1O (configuration not stated)	–	inconclusive: 11.2 µM [inhibitor, partial curve]
CC(C)CN=Cc1c(O)c([N+](=O)[O-])cc2oc3c(c12)CCCC3	inactive: -11.5%	–
Cc1cc(C)c(NC(=O)CS(=O)CC(=O)Nc2ccc(-n3cnnn3)c(C)c2)c(C)c1 (configuration not stated)	–	inconclusive: 15.8 µM [inhibitor, single point]
COc1ccccc1OCCSc1nc(-c2ccc(C(C)(C)C)cc2)nc2cc(=O)[nH]n12	–	inconclusive: 35.5 µM [inhibitor, single point]
CN(C)c1ccc2cc(S(=O)(=O)O)cc(O)c2c1	–	inconclusive: 6.31 µM [inhibitor, full curve]
COc1ccccc1N1CCN(c2ccc(NC(=O)c3ccc(C)cc3)cc2C(=O)O)CC1	inactive: -3.89%	–
CCN(CC)C(=O)CSc1nc2c(sc(=S)n2CC)c(=O)n1-c1ccccc1	inactive: -5.99%	–
O=C(Nc1ncccn1)C1CCCN1S(=O)(=O)c1ccc(Cl)c(Cl)c1 (configuration not stated)	–	inconclusive: 3.98 µM [inhibitor, single point]
Oc1cc2c(cc1O)C(c1ccccc1)CNCC2 (configuration not stated)	–	inconclusive: 12.6 µM [inhibitor, single point]
Cc1ccc(N2NC(=O)/C(=C/c3ccc(-c4ccc(Cl)c(C(=O)O)c4)o3)C2=O)cc1C	–	inconclusive: 12.6 µM [inhibitor, partial curve]
NC(=S)N/N=C1\CC(n2nnn(-c3cccc(Cl)c3)c2=S)C2COC1O2 (configuration not stated)	–	inconclusive: 4.47 µM [inhibitor, full curve]
CC12CCC(c3c1nc1ccccc1[n+]3[O-])C2(C)C (configuration not stated)	–	inconclusive: 10 µM [inhibitor, single point]
NNc1nccc(Nc2ccccc2C(=O)O)n1	–	inconclusive: 22.4 µM [inhibitor, single point]
O=[N+]([O-])c1ccc(OS(=O)(=O)Cc2ccccc2)cc1	–	inconclusive: 35.5 µM [inhibitor, single point]
O=S(=O)(NC1CC1)c1ccc2c3c(cccc13)CC2	–	inconclusive: 25.1 µM [inhibitor, single point]
Cc1ccc(C2CC2c2n[nH]c(=S)n2-c2cccc(Cl)c2)cc1 (configuration not stated)	inactive: 11.2%	–
